Consider nine molecules from publication PMC9911399, “Two distinct binding modes provide the RNA-binding protein RbFox with extraordinary sequence specificity”.

Positions count from the first letter of the chain named. This is one part of the list.

B1: UCAUAGC (DNA:RNA)
RNA: GGGAGACCGGAAUUCAGAUUGUCCUCAUAGCUUAAAUCCCGUCGUAGCCACCA
DNA 1: CAATCTGAATTCCGGTCTCCC
DNA 2: TGGTGGCTACGACGGGATT
B2: CUCAGAG (DNA:RNA)
RNA: GGGAGACCGGAAUUCAGAUUGUCCCUCAGAGUUAAAUCCCGUCGUAGCCACCA
DNA 1: CAATCTGAATTCCGGTCTCCC
DNA 2: TGGTGGCTACGACGGGATT
B3: AAUUUCC (DNA:RNA)
RNA: B1 RNA with U25A, C26A, A27U, A29U, G30C
DNA 1: CAATCTGAATTCCGGTCTCCC
DNA 2: TGGTGGCTACGACGGGATT
B4: UGGCCCG (DNA:RNA)
RNA: B2 RNA with C25U, U26G, C27G, A28C, G29C, A30C
DNA 1: CAATCTGAATTCCGGTCTCCC
DNA 2: TGGTGGCTACGACGGGATT
B5: GCGCCGC (DNA:RNA)
RNA: B1 RNA with U25G, A27G, U28C, A29C
DNA 1: CAATCTGAATTCCGGTCTCCC
DNA 2: TGGTGGCTACGACGGGATT
B6: CCAAAGC (DNA:RNA)
RNA: B1 RNA with U25C, U28A
DNA 1: CAATCTGAATTCCGGTCTCCC
DNA 2: TGGTGGCTACGACGGGATT
B7: GAUACUG (DNA:RNA)
RNA: B2 RNA with C25G, U26A, C27U, G29C, A30U
DNA 1: CAATCTGAATTCCGGTCTCCC
DNA 2: TGGTGGCTACGACGGGATT
B8: CUCAGCA (DNA:RNA)
RNA: B2 RNA with A30C, G31A
DNA 1: CAATCTGAATTCCGGTCTCCC
DNA 2: TGGTGGCTACGACGGGATT
B9: AACCUAG (DNA:RNA)
RNA: B2 RNA with C25A, U26A, A28C, G29U
DNA 1: CAATCTGAATTCCGGTCTCCC
DNA 2: TGGTGGCTACGACGGGATT

The test concerns the target T1, RBFOX1 RRM (Homo sapiens, UniProt Q9NWB1 109-208).
T1 sequence: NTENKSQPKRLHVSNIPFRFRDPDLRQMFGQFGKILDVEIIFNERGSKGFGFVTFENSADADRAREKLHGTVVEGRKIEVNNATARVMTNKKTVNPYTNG
Nature of the test: EMSA; HiTS-Eq, 1 nM pool, 10 min; buffer printed only for the single-RNA assays: 10 mM Tris pH 7.5, 150 mM NaCl, 3.4 mM EDTA, 0.001% NP-40, 30 C. The conditions noted are these: tags: His6 N-terminal (pET28a); label: 5' 32P. In short, it runs like this:
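Purified RbFox RRM (wild type or mutant) was equilibrated for 10 min in 50 µL with 1 nM of a 5′-radiolabelled pool of RNA with 7 randomized nucleotides, its flanks annealed to DNA oligonucleotides, across increasing protein concentrations. Free RNA was separated by 8% native PAGE, excised, reverse-transcribed, PCR-barcoded and sequenced on an Illumina HiSeq 2500. Relative association constants came from read-count changes of each variant against the control reaction, normalised to the cognate motif.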
With B1, the binding signal is 0.00582 KA relative to UGCAUGU.
To B2 belongs 0.0127 KA relative to UGCAUGU.
With B3 the figure was 0.00118 KA relative to UGCAUGU; with B4, 0.0217 KA relative to UGCAUGU; with B5, 0.0127 KA relative to UGCAUGU.
To B6 belongs 0.000423 KA relative to UGCAUGU; to B7, 0.0155 KA relative to UGCAUGU.
For B8, the binding signal was 0.00573 KA relative to UGCAUGU.
With B9 the figure was 0.00207 KA relative to UGCAUGU.
